Measurements from the RNAGym collection of RNA variant scans (doi:10.7554/elife.90254).
Read counts are not given, so values of variants with three or more changes are uncertain.

B1: LINE1-mini (parent)
chain: GGCAGAGCUCAACACAGCGUGGCAAAGUGGCUGUGGCUAGACUGCC

Variants of: B1
Experiment: self-cleavage, relative activity (ratio to wild type); higher = more cleavage; in vitro, sequencing; the parent is a self-cleaving ribozyme

Question: For GCAAGAGCUCAACACAGCGUAGCAAAGUGACUGUGGGUAGACUGCC [G2C C3A G21A G30A C37G], which self-cleavage is on record?
Answer: 0.22

Question: For GACAGAGCUCAACACAGCGUGGCAAAGUGGCUGGGGCUAGGCUGCC [G2A U34G A41G], which self-cleavage is on record?
Answer: 0.08

Question: With GCCAGAGCUCCACACAGCGUGGCCAAGUGGCUGUGGCUAGACUGCC [G2C A11C A24C] as the variant, how does the self-cleavage read?
Answer: 0.01

Question: For GCCAGAGAUCAACACAGCGUGGCAAUGUGGCUGUGGCUAGACUGCC [G2C C8A A26U], which self-cleavage is on record?
Answer: 0.14

Question: With GCCAGAGCUCCAGACAGCGUGGCAAAGUGGCUGUGGCUAGACUGCC [G2C A11C C13G] as the variant, how does the self-cleavage read?
Answer: 0.02

Question: Which self-cleavage does the source give for GCCAGAGCUCAACACAGCGUGGCAAGGUGGCUGUGGCUAGAAUGCC [G2C A26G C42A] here?
Answer: 0.02

Question: With GCCCGAGCUCUACAUAGCGUGGCAAAGUGGCUGUGGUUUGACUGCC [G2C A4C A11U C15U C37U A39U] as the variant, how does the self-cleavage read?
Answer: 0.01

Question: Which self-cleavage does the source give for GCCAGGGCUCAACACAACGUGGCAAAGUGGCUGUGGAUAGACUGCC [G2C A6G G17A C37A] here?
Answer: 0.01

Question: Which self-cleavage does the source give for GCCAGAGCUCCACACAGCGUGGCAAAGUGGCUGUGGCAAGACUGCC [G2C A11C U38A] here?
Answer: 0.01

Question: Which self-cleavage does the source give for GCAAGAGCUCAACACAGCGUGGCAAAGUGACUGUGGCUAGACUGCC [G2C C3A G30A] here?
Answer: 0.31

Question: With GCUAGAGCACAACCCAGCGUGGCAAAGUGGCUGUGGAUAAACUGCC [G2C C3U U9A A14C C37A G40A] as the variant, how does the self-cleavage read?
Answer: 0.12

Question: Which self-cleavage does the source give for GCCGGAGCUCAACACAGCGUGGCAAAGUGGCUGUUGCUAGACUGCC [G2C A4G G35U] here?
Answer: 0.02

Question: With GCCAGAGCUCUACACAGCGUGACAAACUGGCAGUGGCUAGACUGCC [G2C A11U G22A G27C U32A] as the variant, how does the self-cleavage read?
Answer: 0.01

Question: Which self-cleavage does the source give for GCCAGAGCUCAACACAGCGUGGCCACGUGGCUGUGGCAAGACUGUC [G2C A24C A26C U38A C45U] here?
Answer: 0.02

Question: With GCCAGAGGGCAACAGAGCGUGGCAAAGUGGCUGUGUCUAGACUGCC [G2C C8G U9G C15G G36U] as the variant, how does the self-cleavage read?
Answer: 0.03

Question: With GCCCGAGCUCAACACAGCGUGUCAAAGUGGCUGUGGCUAGACUGCC [G2C A4C G22U] as the variant, how does the self-cleavage read?
Answer: 0.03

Question: Which self-cleavage does the source give for GCCAGAGCUCAACGCAUCGUGGCAAAGUGGCUGUAGAUAGGCUGCC [G2C A14G G17U G35A C37A A41G] here?
Answer: 0.01

Question: Which self-cleavage does the source give for GCCCGAGCUCAACACUGCGUGGCAAAGUGGCUGUGGCUAGACUGCC [G2C A4C A16U] here?
Answer: 0.04

Question: For GCUAGAGCUCAACACGGAGUGGCAAAGCGGCUGUGGCUAGACAGCC [G2C C3U A16G C18A U28C U43A], which self-cleavage is on record?
Answer: 0.08

Question: For GCCAGAGCUCAACACAGCGUGGCAGAGUGGCUGUGGCUAUACUGCC [G2C A25G G40U], which self-cleavage is on record?
Answer: 0.26

Question: Which self-cleavage does the source give for GCCAGAGCUCAACACUGCGUGGGUAAGUGGCUAUGGCUAGACUACC [G2C A16U C23G A24U G33A G44A] here?
Answer: 0.09

Question: Which self-cleavage does the source give for GCAAGAGCUCAACAAAGCGUGGCAAAGUGGCUGUCGCUAGACUGCC [G2C C3A C15A G35C] here?
Answer: 0.05

Question: With GCCAGAGAUCAACUCAGCGUGGAAAAGUGGCGGAUGCUAGACUGCC [G2C C8A A14U C23A U32G U34A G35U] as the variant, how does the self-cleavage read?
Answer: 0.78

Question: Which self-cleavage does the source give for GCCAGAGCUCACCACAGCGUGACAAAGUGGCUGUGGCUAGACUGCC [G2C A12C G22A] here?
Answer: 0.01

Question: Which self-cleavage does the source give for GACAGAGCUCAACACAGCGUGGCAAAGAGGCUGUGGCUAUACUGCC [G2A U28A G40U] here?
Answer: 0.05

Question: Which self-cleavage does the source give for GCCAGUGCUUAACACAGCGUGGCAAAGUGGCUGUGGCUAGUCUGCC [G2C A6U C10U A41U] here?
Answer: 0.07

Question: With GCGAGAGUUCAACACAGUGUGGCAAAGUGCCUGUAGCUAUACUGCC [G2C C3G C8U C18U G30C G35A G40U] as the variant, how does the self-cleavage read?
Answer: 0.03

Question: Which self-cleavage does the source give for GCCAGCGCUCAGCACAGGGUGGCAAAUUGGCUGCGGCUAGACUGCC [G2C A6C A12G C18G G27U U34C] here?
Answer: 0.16

Question: For GCAAGAGCUUAACACAGCGUGGCAAAGUGACUGUGGCUAGACUGGC [G2C C3A C10U G30A C45G], which self-cleavage is on record?
Answer: 0.16

Question: With GACAGAGCUCAACACAGCGUGGCAAAGGGGCUGUGGGUAGACUGAC [G2A U28G C37G C45A] as the variant, how does the self-cleavage read?
Answer: 0.1

Question: Which self-cleavage does the source give for GCUAGAGCUCAACACCGCUUGGCAAAGUGACUGUGGCUAGACUGCC [G2C C3U A16C G19U G30A] here?
Answer: 0.07

Question: With GCCAGAGGUCAACACAGCGUGGCUAAGUGGCUGUGUCUAGACUGCC [G2C C8G A24U G36U] as the variant, how does the self-cleavage read?
Answer: 0.02

Question: For GCCAGAGCUCAACACAGCGUGGCAAUGUGUCUGUGGCUAGACUGCC [G2C A26U G30U], which self-cleavage is on record?
Answer: 0.12

Question: Which self-cleavage does the source give for GCUAGAGCUCUAGACACCGUGACAAAGUGGCUGUGGCUAGACUGCC [G2C C3U A11U C13G G17C G22A] here?
Answer: 0.01

Question: For GCCAGAGCUCGACACAGCGUGGUAAAGUGGCUGUUGCUAGACUGCC [G2C A11G C23U G35U], which self-cleavage is on record?
Answer: 0.02

Question: Which self-cleavage does the source give for GCCUGAGCUAAACACAGCGUGGCAAAGUGUCUGUGGAUUGACUGCC [G2C A4U C10A G30U C37A A39U] here?
Answer: 0

Question: With GCCAGAGCUCAACACUUCGUGGCCAAGUGGCCGUGGCUAGACUGCC [G2C A16U G17U A24C U32C] as the variant, how does the self-cleavage read?
Answer: 0.08

Question: For GACAGAGCUCAACACAGCGUGGCAAAGUGGCUGUGGCAAGUCUGCC [G2A U38A A41U], which self-cleavage is on record?
Answer: 0.23

Question: With GCCAGAGCUCAACCCAGUGUGGCAAAAUGGCUCUGGCUAGAGUGCC [G2C A14C C18U G27A G33C C42G] as the variant, how does the self-cleavage read?
Answer: 0.03

Question: For GCCAGAGCUCAACACAGCGUGGCAAAGUGGCUGUGGCUAGGCUUCC [G2C A41G G44U], which self-cleavage is on record?
Answer: 0.05

Question: With GCCAGAGCUCAACACAGCGUGGCAUAGUGGCUUAGGCUAGACUCCC [G2C A25U G33U U34A G44C] as the variant, how does the self-cleavage read?
Answer: 0.42

Question: Which self-cleavage does the source give for GCCAGAGAUCAACACAGCGUGGCAAAGUGGCUGUGGUUAGACUGCC [G2C C8A C37U] here?
Answer: 0.03

Question: For GCCAGAGCUCACCACAUCGUGGCAAAGUGGCAGUGGCUAGACUGCC [G2C A12C G17U U32A], which self-cleavage is on record?
Answer: 0.05

Question: Which self-cleavage does the source give for GCCAGAGGUCAACACAGCGUGGUAAAGUGGCUGUGGCUAGACUGCC [G2C C8G C23U] here?
Answer: 0.01

Question: With GCCAGGGCUCCACAAAGCGUGGCAAAGUGGCUGUGGCUAGACUGCC [G2C A6G A11C C15A] as the variant, how does the self-cleavage read?
Answer: 0.01

Question: For GCCAGCGCUCAACACAGCGUGUCAAAGUGGCUGUGGCUAGACUGCA [G2C A6C G22U C46A], which self-cleavage is on record?
Answer: 0.16

Question: For GCCAGAGCUCUACACAGCGUGGCAAAGAGGCUGUGGCUAGACUGAC [G2C A11U U28A C45A], which self-cleavage is on record?
Answer: 0.01

Question: Which self-cleavage does the source give for GCCAGAGCUCGACACAGCGUGGCAAAGUGGCUGUGGCGAGAAUGCC [G2C A11G U38G C42A] here?
Answer: 0

Question: Which self-cleavage does the source give for GACAGAGCUCAACACAGCGUGGCAAAGUGGCUGUGGCGAGACUACC [G2A U38G G44A] here?
Answer: 0.07

Question: Which self-cleavage does the source give for GCCAGAGCUCAACACAGCGUGGCAAAGUGGCUGUGGCUAGUCGGAC [G2C A41U U43G C45A] here?
Answer: 0.09

Question: For GCCAGAGCUCACAACAGCGUGGCAAAAUGGUUUUGGCUAGACUGCC [G2C A12C C13A G27A C31U G33U], which self-cleavage is on record?
Answer: 0.05

Question: Which self-cleavage does the source give for GCCAGAGCUCAACACAGCGUGGCAACGUGGCAGUGGCUAGACUGCC [G2C A26C U32A] here?
Answer: 0.06

Question: With GCUUGAGUUCAACACAGCGUGGCAAAGUGGCUGUGGCUAGACUGCC [G2C C3U A4U C8U] as the variant, how does the self-cleavage read?
Answer: 0.7

Question: With GCCAGAGAUCAACACAGGGUGGCAAAGUAGCUGUGACUAGACUGCC [G2C C8A C18G G29A G36A] as the variant, how does the self-cleavage read?
Answer: 0.07

Question: With GACAGAGCUCAACACAGCGUGGCAAAGCGGGUGUGGCUAGACUGCG [G2A U28C C31G C46G] as the variant, how does the self-cleavage read?
Answer: 0.05

Question: Which self-cleavage does the source give for GCCAGAGCUCAACACAGCGUGGCGAAGUGGCUGUGGCUAGACUGCG [G2C A24G C46G] here?
Answer: 0.18
